For test [1], the target named is T1, human IL-17A (human, UniProt Q16552 20-155, limits assumed).
T1 sequence: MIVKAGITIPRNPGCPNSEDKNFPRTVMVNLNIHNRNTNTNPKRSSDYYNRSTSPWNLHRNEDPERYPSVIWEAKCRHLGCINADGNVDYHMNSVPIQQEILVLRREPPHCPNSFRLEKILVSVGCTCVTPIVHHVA
Kind of test: cell-based or functional assay.

The target in test [2] is T1, human IL-17A. Kind of test: ELISA, captured periplasmic Z-ABD, titrated b-hIL-17A.

Numbering of substitutions follows the chain as printed.

B1: ZAZ3270 (designed binder)
chain: AEAKYAKEADDAAVEIADLPNLTWDQWYAFISKLRDDPSQSSELLSEAKKLNDSQAPKASGSLAEAKEAANAELDSYGVSDFYKRLIDKAKTVEGVEALKDAILAALPGTGGGGSAEAKYAKEADDAAVEIADLPNLTWDQWYAFISKLRDDPSQSSELLSEAKKLNDSQAPK
Turning to B1, the “IC50, IL-17A induced IL-6 production, NHDF cells, with HSA” value (“IC50, IL-17A induced IL-6 production” for short) with human IL-17A [1] was 0.41 nM.

B2: ZAZ3176 (designed binder)
chain: VDAKYAKEADQAAMEIATLPNLTWDQWFAFIAKLRDDPSQSSELLSEAKKLNDSQAPKGAPGGGGSGGGGSTSLAEAKEAANAELDSYGVSDFYKRLIDKAKTVEGVEALKDAILAALPGTGGGGSGGGGSPRVDAKYAKEADQAAMEIATLPNLTWDQWFAFIAKLRDDPSQSSELLSEAKKLNDSQAPK
On to B2, for which the “IC50, IL-17A induced IL-6 production” value in the test with human IL-17A [1] came out at 0.5 nM.

B3: ZAZ3175 (designed binder)
chain: VDAKYAKEADQAAMEIATLPNLTWDQWFAFIAKLRDDPSQSSELLSEAKKLNDSQAPKGAPGGGGSGGGGSGGGGSTSLAEAKEAANAELDSYGVSDFYKRLIDKAKTVEGVEALKDAILAALPGTGGGGSGGGGSGGGGSPRVDAKYAKEADQAAMEIATLPNLTWDQWFAFIAKLRDDPSQSSELLSEAKKLNDSQAPK
Regarding B3, the “IC50, IL-17A induced IL-6 production” value with human IL-17A [1] amounted to 0.56 nM.

B4: ZAZ3237 (designed binder)
chain: VDAKYAKEADQAAMEIATLPNLTWDQWFAFIAKLRDDPSQSSELLSEAKKLNDSQAPKGAPGGGGSTSLAEAKEAANAELDSYGVSDFYKRLIDKAKTVEGVEALKDAILAALPGTGGGGSGGGGSPRVDAKYAKEADQAAMEIATLPNLTWDQWFAFIAKLRDDPSQSSELLSEAKKLNDSQAPK
Consider B4, for which the “IC50, IL-17A induced IL-6 production” value with human IL-17A [1] worked out at 0.49 nM.

B5: ZAZ3174 (designed binder)
chain: VDAKYAKEADQAAMEIATLPNLTWDQWFAFIAKLRDDPSQSSELLSEAKKLNDSQAPKGAPGGGGSGGGGSGGGGSGGGGSTSLAEAKEAANAELDSYGVSDFYKRLIDKAKTVEGVEALKDAILAALPGTGGGGSGGGGSGGGGSGGGGSPRVDAKYAKEADQAAMEIATLPNLTWDQWFAFIAKLRDDPSQSSELLSEAKKLNDSQAPK
On to B5, for which the “IC50, IL-17A induced IL-6 production” value in the test with human IL-17A [1] turned out to be 0.63 nM.

B6: ZAZ3221 (designed binder)
chain: B5 chain with Q11D, M14V, T18S, F28Y, A32Q, Q164D, M167V, T171S, F181Y, A185Q
With B6, the “IC50, IL-17A induced IL-6 production” value with human IL-17A [1] amounted to 0.39 nM.

B7: Z12059, periplasmic ABD fusion (designed binder)
chain: AQHDEALEVDAKYAKEADDAAYEIAFLPNLTWDQWFAFISKLRDDPSQSSELLSEAKKLNDSQAPKVDYVLAEAKVLANRELDKYGVSDYYKNLINNAKTVEGVKALIDEILAALPYVPG
notes: domain: GA3
Regarding B7, the EC50 in the test with human IL-17A [2] stood at 0.53 nM.

B8: Z12081, periplasmic ABD fusion (designed binder)
chain: B7 chain with Y22L, F26D, F36W
notes: domain: GA3
In the test with human IL-17A [2], B8 registered an EC50 of 0.56 nM.

B9: Z12073, periplasmic ABD fusion (designed binder)
chain: B7 chain with Y22V, F26D, F36Y, S40T
notes: domain: GA3
B9: it took 0.43 nM to reach a half-maximal effect with human IL-17A [2] (EC50).

B10: Z12264, periplasmic ABD fusion (designed binder)
chain: B7 chain with F36W, S40Q
notes: domain: GA3
As for B10, the EC50 with human IL-17A [2] was 0.39 nM.

B11: Z12275, periplasmic ABD fusion (designed binder)
chain: B7 chain with Y22V, F26D, S40N
notes: domain: GA3
B11 gave an EC50 with human IL-17A [2] of 0.42 nM.

B12: Z12439, periplasmic ABD fusion (designed binder)
chain: B7 chain with D19M, Y22V, F26E, D33E, F36W, S40G
notes: domain: GA3
On to B12, for which the concentration for a half-maximal effect (EC50) with human IL-17A [2] came to 0.61 nM.

B13: Z12256, periplasmic ABD fusion (designed binder)
chain: B7 chain with Y22V, F26D, F36Y, S40A
notes: domain: GA3
Turning to B13, in the test with human IL-17A [2], the response was half-maximal at 0.47 nM (EC50).

B14: Z12180, periplasmic ABD fusion (designed binder)
chain: B7 chain with Y22V, F26A, F36W, S40G
notes: domain: GA3
For the molecule B14, the EC50 in the test with human IL-17A [2] stood at 0.37 nM.

B15: Z12211, periplasmic ABD fusion (designed binder)
chain: B7 chain with D19E, Y22V, F26D, F36W, S40N
notes: domain: GA3
B15 registered an EC50 with human IL-17A [2] of 0.46 nM.

B16: Z12115, periplasmic ABD fusion (designed binder)
chain: B7 chain with F26Y, F36Y, S40Q
notes: domain: GA3
Take B16: the EC50 in the test with human IL-17A [2] turned out to be 0.42 nM.

B17: Z12163, periplasmic ABD fusion (designed binder)
chain: B7 chain with D19Q, S40N
notes: domain: GA3
In the test with human IL-17A [2], B17 came in with an EC50 of 0.5 nM.

B18: Z12078, periplasmic ABD fusion (designed binder)
chain: B7 chain with F26Y, S40T
notes: domain: GA3
Molecule B18 registered an EC50 in the test with human IL-17A [2] of 0.52 nM.

B19: Z12285, periplasmic ABD fusion (designed binder)
chain: B7 chain with D19N, Y22L, F26N, F36W, S40T
notes: domain: GA3
Turning to B19, the response in the test with human IL-17A [2] was half-maximal at 0.91 nM (EC50).

B20: Z12212, periplasmic ABD fusion (designed binder)
chain: B7 chain with Y22V, F26L, F36Y, S40N
notes: domain: GA3
B20 had an EC50 in the test with human IL-17A [2] of 0.78 nM.

B21: Z12060, periplasmic ABD fusion (designed binder)
chain: B7 chain with D19A, Y22V, F26E, F36W, S40N
notes: domain: GA3
Molecule B21 showed an EC50 with human IL-17A [2] of 0.51 nM.

B22: ZAZ3236 (designed binder)
chain: VDAKYAKEADQAAMEIATLPNLTWDQWFAFIAKLRDDPSQSSELLSEAKKLNDSQAPKGAPGGGGSTSLAEAKEAANAELDSYGVSDFYKRLIDKAKTVEGVEALKDAILAALPGTGGGGSPRVDAKYAKEADQAAMEIATLPNLTWDQWFAFIAKLRDDPSQSSELLSEAKKLNDSQAPK
For the molecule B22, the “IC50, IL-17A induced IL-6 production” value with human IL-17A [1] was 0.54 nM.

B23: ZAZ3269 (designed binder)
chain: AEAKYAKEADDAAVEIADLPNLTWDQWYAFISKLRDDPSQSSELLSEAKKLNDSQAPKVDGSLAEAKEAANAELDSYGVSDFYKRLIDKAKTVEGVEALKDAILAALPGTGGGGSPKAEAKYAKEADDAAVEIADLPNLTWDQWYAFISKLRDDPSQSSELLSEAKKLNDSQAPK
On to B23, for which the “IC50, IL-17A induced IL-6 production” value in the test with human IL-17A [1] was 0.42 nM.

B24: ZAZ3235 (designed binder)
chain: VDAKYAKEADQAAMEIATLPNLTWDQWFAFIAKLRDDPSQSSELLSEAKKLNDSQAPKVDGSLAEAKEAANAELDSYGVSDFYKRLIDKAKTVEGVEALKDAILAALPGTGGGGSGGGGSPRVDAKYAKEADQAAMEIATLPNLTWDQWFAFIAKLRDDPSQSSELLSEAKKLNDSQAPK
Turning to B24, the “IC50, IL-17A induced IL-6 production” value with human IL-17A [1] turned out to be 0.6 nM.

B25: ZAZ3234 (designed binder)
chain: VDAKYAKEADQAAMEIATLPNLTWDQWFAFIAKLRDDPSQSSELLSEAKKLNDSQAPKVDGSLAEAKEAANAELDSYGVSDFYKRLIDKAKTVEGVEALKDAILAALPGTGGGGSPRVDAKYAKEADQAAMEIATLPNLTWDQWFAFIAKLRDDPSQSSELLSEAKKLNDSQAPK
In the case of B25, in the test with human IL-17A [1], the “IC50, IL-17A induced IL-6 production” value is 0.66 nM.

For the origin of these results see patent US20250101074A1 (Affibody, published 2025).
